Measured values as given in article PMC4336329 (PLoS ONE, 2015).
Hit rate of the full screen: of about 310,000 compounds, about 14,000 (4.5%) showed an effect of 50% or more. The effect is printed as a negative number. This is one part of the list.

molecular target: human ether-à-go-go-related gene (hERG) potassium channel (human, UniProt Q12809); experiment: primary screen, population patch clamp on CHO cells stably expressing hERG
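Note: peak tail current of the secondary pulse compared with the same well before compound.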

human ether-à-go-go-related gene (hERG) potassium channel, sequence (Q12809 whole entry, looked up): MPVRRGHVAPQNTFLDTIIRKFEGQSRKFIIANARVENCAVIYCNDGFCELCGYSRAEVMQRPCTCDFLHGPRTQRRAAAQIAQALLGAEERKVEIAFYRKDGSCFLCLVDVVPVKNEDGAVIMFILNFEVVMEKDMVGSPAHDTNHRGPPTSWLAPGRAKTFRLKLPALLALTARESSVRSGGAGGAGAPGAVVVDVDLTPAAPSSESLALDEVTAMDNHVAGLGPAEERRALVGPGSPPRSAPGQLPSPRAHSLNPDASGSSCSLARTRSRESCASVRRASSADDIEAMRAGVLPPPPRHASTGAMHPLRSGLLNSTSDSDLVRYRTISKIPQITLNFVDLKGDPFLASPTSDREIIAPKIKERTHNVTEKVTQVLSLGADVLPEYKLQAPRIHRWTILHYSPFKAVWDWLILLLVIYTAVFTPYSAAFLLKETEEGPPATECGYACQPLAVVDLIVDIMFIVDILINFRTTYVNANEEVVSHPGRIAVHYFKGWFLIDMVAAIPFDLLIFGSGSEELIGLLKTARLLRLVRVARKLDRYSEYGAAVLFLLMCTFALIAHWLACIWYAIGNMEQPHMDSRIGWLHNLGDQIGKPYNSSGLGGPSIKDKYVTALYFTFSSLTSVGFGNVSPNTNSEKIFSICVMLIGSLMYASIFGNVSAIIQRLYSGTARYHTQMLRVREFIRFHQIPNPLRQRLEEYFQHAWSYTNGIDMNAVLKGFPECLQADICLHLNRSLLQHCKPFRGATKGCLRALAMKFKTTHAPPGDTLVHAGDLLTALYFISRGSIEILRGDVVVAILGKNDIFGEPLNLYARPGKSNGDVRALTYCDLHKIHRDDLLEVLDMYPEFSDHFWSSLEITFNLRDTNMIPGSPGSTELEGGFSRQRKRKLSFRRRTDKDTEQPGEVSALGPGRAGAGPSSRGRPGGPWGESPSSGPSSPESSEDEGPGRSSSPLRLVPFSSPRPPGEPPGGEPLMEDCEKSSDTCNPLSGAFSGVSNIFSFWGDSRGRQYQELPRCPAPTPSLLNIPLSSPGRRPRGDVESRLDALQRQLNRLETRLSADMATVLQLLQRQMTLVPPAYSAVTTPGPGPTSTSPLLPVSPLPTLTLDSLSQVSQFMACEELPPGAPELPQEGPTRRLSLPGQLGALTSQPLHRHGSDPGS

Point of comparison: CCn1cc(CCCC(=O)NCc2ccccc2OC)c2ccccc21, “hERG current change (%, negative = inhibition) at 10uM” value 7.27%. Against it:
- CCOC(=O)c1cc(-c2ccccc2)sc1NC(=O)CSc1nncs1 — lower, -3.29%
- CCOc1ccc(C(NC(=O)CC)c2c(O)ccc3ccccc23)cc1 (stereo not shown) — lower, -7.96%
- CC(=O)OCCCN(C)CC/C=C1/c2ccccc2CSc2ccccc21.Cl — lower, -32.8%
- Cc1ccc2c(c1)N(CC(=O)NCCCN1CCN(C)CC1)C(=O)CO2 — higher, 9.46%
- C=CCNC(=O)/C(=C\c1ccc(Br)cc1)NC(=O)c1ccccc1OC — lower, -51.8%
- CCOC(=O)N1CCC(NS(=O)(=O)c2ccc3c(c2)OCC(=O)N3)CC1 — lower, 2.11%
- CCN(CC)CCCNC(=O)c1ccc(Cl)c(S(=O)(=O)Nc2ccccc2OC)c1.Cl — lower, -20.3%
- O=C(Nc1ccccc1)OCC1CCCN2CCCCC12 (stereo not shown) — lower, -39.4%
- O=C(COC(=O)c1cncc(Br)c1)NCC1CCCO1 (stereo not shown) — lower, 6.98%
- CSc1cc(-c2ccc(Cl)cc2)c(C(=O)N2CCCC2)s1 — lower, -46.8%
- Cc1ccc(N2C(=O)C3C=NNC3C2=O)cc1 (stereo not shown) — higher, 23.1%
- C/C(N)=C(/C#N)C(=O)COC(=O)CNS(=O)(=O)c1c(F)cccc1F — higher, 15.9%
- COC(=O)c1cccn(CC(=O)c2ccc(Cl)cc2)c1=O — lower, -41.6%
- O=C(c1cccc(S(=O)(=O)N2CCc3ccccc32)c1)N1CCCC(C(F)(F)F)C1 (stereo not shown) — lower, -25%
- COC(=O)c1sccc1NC(=O)c1cc(-c2ccc(C)cc2)nc2ccccc12 — higher, 21.2%
- CCOc1ccc(N2CC(NC(=O)c3cccc4ccccc34)CC2=O)cc1 (stereo not shown) — lower, 3.75%
- O=C(N/N=C/c1cc(Cl)cc([N+](=O)[O-])c1O)c1ccccc1NS(=O)(=O)c1cccs1 — lower, 3.95%
- Fc1ccc2c(Cl)c(-c3nnc(-c4cccs4)o3)sc2c1 — higher, 19.5%
- Cc1c([N+](=O)[O-])ccc(S(=O)(=O)N2CCC(C(N)=O)CC2)c1C — lower, -5.35%
- CCCc1nc2oc3c(OCC)ncnc3c2c2c1COC(C)(C)C2 — lower, -13.2%
- CC(=O)Oc1ccccc1N1C(=O)c2ccc(C(=O)O)cc2C1=O — higher, 11.3%
- COc1ccc2c(C(=O)c3ccc(C)cc3)n(CCC(N)=O)[n+]([O-])c2c1 — lower, -6.56%
- O=C(O)C1CCCCC1C(=O)NCCc1ccccc1 (stereo not shown) — lower, 1.68%
- CN(C(=O)c1ccc(NC(=O)Cc2ccc(NC(=O)C3CCN(C(=O)CCc4ccccc4)CC3)cc2)cc1)C1CC1 — higher, 9.51%
- CCOC(=O)Cn1c(=O)c2c(nc(Br)n2Cc2ccc(Cl)cc2)n(C)c1=O — lower, -18.3%
- Cc1c(NC(=O)CSc2nnnn2Cc2ccccc2)c(=O)n(-c2ccccc2)n1C — lower, -6.71%
- O=C(C[n+]1cccc(NC(=O)c2ccccc2)c1)c1ccccc1.[Br-] — lower, -18.1%
- Cc1cccc(C)c1NC(=O)C(c1ccccc1)N1CC(=O)Nc2ccccc21 (stereo not shown) — lower, -5.07%
- COc1cccc(NC(=O)C(=O)N/N=C/c2cc(C)n(-c3ccc(Cl)c(Cl)c3)c2C)c1 — higher, 8.18%
- CC(C)(C)c1ccc(OC2=CS(=O)(=O)c3ccccc32)cc1 — higher, 8.82%
- CC(C)CC(=O)c1c[nH]c(C(=O)NCCCN2CCOCC2)c1 — lower, 1.81%
- CC(=O)Nc1c(C)nn(-c2ccc([N+](=O)[O-])cc2)c1C — higher, 14.9%
- CCOc1ccc(NC(=O)C(C)SC(N)=O)cc1 (stereo not shown) — lower, -11.4%
- CCOC(=O)c1c(C)n(C)c2ccc(OCC(O)Cn3c(C)nc4ccccc43)cc12 (stereo not shown) — lower, -12.5%
- Cc1ccc(-c2cc3nc(-c4ccccc4)cc(N)n3n2)cc1 — higher, 10.2%
- N#Cc1c(-c2ccc(F)cc2)noc1N — lower, 4.96%
- O=C(CN1C(=O)NC2(CCCCC2)C1=O)Oc1ccc2ccc(=O)oc2c1 — lower, -0.0266%
- O=c1onc(-c2c(F)cccc2F)n1-c1ccccc1Cl — higher, 16.6%
- Cc1ccc(C(C)NC(=S)NCc2ccc(F)cc2)cc1C (stereo not shown) — lower, -31%
- Cc1ccc(CSCC(=O)N2CCN(Cc3ccc4c(c3)OCO4)CC2)cc1 — lower, -48.4%
- CCOc1ccc(OCCC(=O)OCC(=O)Nc2cc(S(=O)(=O)N3CCOCC3)ccc2C)cc1 — higher, 12.2%
- Cc1ccc(C(=O)Nc2ccc3nccnc3c2)cc1 — lower, 2.22%
- CCCNC(=O)c1cc2nc(-c3ccccc3)cc(C(F)(F)F)n2n1 — higher, 11.2%
- Cn1c(Cn2cnc([N+](=O)[O-])n2)nnc1SCC(=O)Nc1ccc(Br)cc1 — lower, 6.97%
- N#Cc1ccccc1NC(=O)Nc1cccs1 — higher, 18.2%
- O=C(CN1C(=O)NC2(CCCCC2)C1=O)N1CCN(S(=O)(=O)c2cccc([N+](=O)[O-])c2)CC1 — lower, -1.76%
- CCCc1c(C(=O)N/N=C/c2ccccc2OCc2ccc(F)cc2)nnn1-c1nonc1N — higher, 18.6%
- O=C(NCC(c1cccs1)N1CCOCC1)c1ccc(Cl)c(S(=O)(=O)N2CCOCC2)c1 (stereo not shown) — lower, -14.7%
- Cc1ccc(S(=O)(=O)NCc2nc3ccccc3[nH]2)cc1 — lower, 1.83%
- O=C(Nc1ccc(Cl)cc1)C1CCCN1C(=O)NCc1ccccc1 (stereo not shown) — higher, 10.2%
- CC1(c2nnc(Cc3ccccc3)o2)CC(c2ccc(F)cc2)=NO1 (stereo not shown) — lower, -8.08%
- COc1cccc(S(=O)(=O)NCc2ccc(C(=O)Nc3ccc(Cl)c(Cl)c3)cc2)c1 — lower, -0.604%
- COC(=O)[C@H](C)NC(=O)NC1CCCc2ccccc21 (stereo partly shown) — lower, -4.21%
- COc1ccc2cc(C(N)=O)c(=Nc3ccc(C)cc3)oc2c1 — lower, 7.06%
- CCCn1c(SCC(=O)N2CCc3ccccc3C2)nc2c1c(=O)n(C)c(=O)n2C — lower, -29.2%
- CC(CCN1C(N(C)C)=NC[C@@H]1C)c1ccccc1 (stereo partly shown) — lower, -6.23%
- CC(C)n1c(SCC(=O)Nc2ccccc2N2CCCCC2)nc2c1c(=O)n(C)c(=O)n2C — lower, -36.7%
- Cc1oc(C(C)(C)C)cc1C(=O)N1CCN(c2ncccc2C(F)(F)F)CC1 — lower, -13.9%
- CCOC(=O)c1c(C)nc(C)c(C(=O)OCC)c1-c1ccc(Br)cc1 — lower, -29.7%
- O=C(Cc1ccccc1)N/N=C/c1cccc([N+](=O)[O-])c1 — lower, 6.9%
- CC(=O)O[C@H]1C[C@@H]2CC[C@@H]3[C@H](CC[C@@]4(C)[C@H]3C[C@H]([N+]3(C)CCCCC3)[C@@H]4OC(C)=O)[C@@]2(C)C[C@@H]1[N+]1(C)CCCCC1.[Br-] — higher, 10.9%
- C=CCn1c(SCC(=O)N(CC)C2CCS(=O)(=O)C2)nc2sc3c(c2c1=O)CCC3 (stereo not shown) — lower, -46.7%
- COC(=O)c1cc(C(=O)Nc2cc(C)ccn2)cc([N+](=O)[O-])c1 — higher, 10.3%
- C#Cc1cccc(-n2nnc(C(C)=O)c2C)c1 — higher, 15.5%
- CN(C(=O)Cn1nnc(-c2cccnc2)n1)C1CCCCC1 — lower, 2.31%
- CCC(CO)NC(=O)c1ccccc1C(F)(F)F (stereo not shown) — lower, 2.26%
- Cc1cccc(NC(=O)c2nc[nH]c2C(=O)N[C@@H](CC(C)C)C(=O)OCc2ccccc2)c1 — lower, 3.12%
- CC(C)CC(C(=O)Nc1ccc2c(c1)OCCO2)N1C(=O)c2ccccc2C1=O (stereo not shown) — lower, 3.41%
- O=C(CSc1oc(-c2cccs2)nc1S(=O)(=O)c1ccc(F)cc1)NCC1CCCO1 (stereo not shown) — lower, -26.7%
- COc1ccc(-c2noc(CN3CCN(C(=O)c4cccs4)CC3)n2)c(OC)c1OC — lower, -15.7%
- O=[N+]([O-])c1cc(/C=N/N2CCOCC2)cs1 — higher, 9.76%
- O=C(CCc1nnc(CCCc2ccccc2)o1)NCC(F)(F)F — higher, 12.3%
- COc1ccc(OCC(=O)Nc2ccc(N3CCN(Cc4ccccc4F)CC3)cc2)cc1 — lower, 6.66%
- COc1ccc(N2CCN(C(=O)CNC(=O)c3cccs3)CC2)cc1 — higher, 10.9%
- COc1cccc(CNC(=O)c2ccc(OCC(=O)N3CCOCC3)c(OC)c2)c1 — higher, 20.1%
- NC(=O)C1CCN(c2ccc(C(F)(F)F)cn2)CC1 — higher, 18.1%
- O=S(=O)(Nc1nc2ccccc2nc1NCC1CCCO1)c1cc(Cl)ccc1Cl (stereo not shown) — lower, -19.7%
- COc1ccc(CCn2ccc(O)c(Cc3ccc(Cl)cc3Cl)c2=O)cc1OC — lower, -10.3%
- CCC(Sc1nnc(-c2ccco2)n1C)C(=O)Nc1nnc(C)s1 (stereo not shown) — higher, 12.8%
- OC(COc1ccc2c(c1)CCC2)Cn1cnc2ccccc21 (stereo not shown) — higher, 7.51%
- COc1ccc(C2CC(=O)C3=C(C2)Nc2ncnn2C3c2ccccc2C)c(OC)c1 (stereo not shown) — lower, -12%
- Cc1cc(NC(=O)c2ccc3c(c2)C(=O)N(C)C3=O)no1 — higher, 15%
- Cc1cc(C)cc(-n2c(C)cc(/C=N/NC(=O)CN(c3c(C)cccc3C)S(C)(=O)=O)c2C)c1 — higher, 16.4%
- O=C1C2CC=CCC2C(=O)N1Cc1ccccc1 (stereo not shown) — lower, 2.21%
